Our source for the cell count values is the supplement of paper PMC4604168 (melanoma cell lines).

This is one part of the list. Many values rest on one well or one pass, so single values are uncertain.
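Further: cell number obtained by counting DAPI-stained nuclei in high-throughput microscope images with image analysis software, screen run in 1,536-well plates.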

For one test, the system named is RVH-421. Briefly: cell count relative to DMSO control; melanoma cells; higher = more viable cells. The following applies: library dose: low library concentration; 72 h.
For `CCc1ccc(CCOc2ccc(CC3SC(=O)NC3=O)cc2)nc1` (stereo not given) [pioglitazone] + CCCCCCCCCCCC1=C(O)C(=O)C=C(O)C1=O [Embelin] (first compound 2 µM, partner dose 1.2 µM), the cell count was found to be 99.7%.

In turn, `COc1cc2c(Oc3ccc4[nH]c(C)cc4c3F)ncnc2cc1OCCCN1CCCC1` [cediranib] + CCCCCCCCCCCC1=C(O)C(=O)C=C(O)C1=O [Embelin] (first compound 0.4 µM, partner dose 1.2 µM) came in with a cell count of 110%.

The compound `CC(C)(C)c1cnc(CSc2cnc(NC(=O)C3CCNCC3)s2)o1` + Cc1cc([N+](=O)[O-])ccc1NS(=O)(=O)c1cc(Cl)ccc1Cl [FH535] (first compound 0.01 µM, partner dose 1 µM) returned a cell count of 97.5%.

`CC(C)(C)c1cnc(CSc2cnc(NC(=O)C3CCNCC3)s2)o1` + N#Cc1c(O)c2c(-c3ccc(-c4ccccc4O)cc3)csc2[nH]c1=O [A769662] (first compound 0.01 µM, partner dose 2 µM) had a cell count of 101%.

A further test relates to SkMel28. The test is described as above. Conditions: library dose: low library concentration; 72 h.
In the case of `CC(C)(C)c1cnc(CSc2cnc(NC(=O)C3CCNCC3)s2)o1` + COc1ccc2c(c1)CCC1C2CCC2(C)C(NCCCCCCN3C(=O)C=CC3=O)CCC12 [U73122] (first compound 0.01 µM, partner dose 0.4 µM), the cell count was found to be 103%.

For the compound `CC(C)(C)c1cnc(CSc2cnc(NC(=O)C3CCNCC3)s2)o1` + Oc1cc(-c2nc(-c3ccccc3)[nH]c2-c2ccncc2)ccc1Cl [L779450] (first compound 0.01 µM, partner dose 0.2 µM), the cell count amounted to 91.6%.

`CC(C)(C)c1cnc(CSc2cnc(NC(=O)C3CCNCC3)s2)o1` + Cn1cc(/C=C2\C(=O)Nc3cccnc32)c2ccccc21 [GW441756] (first compound 0.01 µM, partner dose 0.4 µM) displayed a cell count of 95.8%.

In turn, `CN(NC(=O)CC(=O)NN(C)C(=S)c1ccccc1)C(=S)c1ccccc1` + COc1cc2ncnc(Nc3ccc(Oc4ccccc4)cc3)c2cc1OC [SrcI1] (first compound 0.006 µM, partner dose 2 µM) registered a cell count of 76.8%.

Compound `CCc1ccc(CCOc2ccc(CC3SC(=O)NC3=O)cc2)nc1` (stereo not given) [pioglitazone] + c1cc(-c2cnn3cc(-c4ccc(OCCN5CCCCC5)cc4)cnc23)ccn1 [Dorsomorphin] (first compound 2 µM, partner dose 0.4 µM) returned a cell count of 88.5%.

For the compound `Cc1ccc(NC(=O)c2cccc(N(C)C)c2)cc1NC(=O)c1ccc(O)cc1` + Cn1cc(/C=C2\C(=O)Nc3cccnc32)c2ccccc21 [GW441756] (first compound 2 µM, partner dose 0.4 µM), the cell count worked out at 79.4%.

On to `CN(NC(=O)CC(=O)NN(C)C(=S)c1ccccc1)C(=S)c1ccccc1` + O=c1cc(-c2cccc3c2Sc2ccccc2S3)oc(N2CCOCC2)c1 [KU55933] (first compound 0.006 µM, partner dose 1 µM), for which the cell count turned out to be 81%.

Regarding `CC(C)(C)c1cnc(CSc2cnc(NC(=O)C3CCNCC3)s2)o1` + O=C1NC(=O)/C(=C/c2ccc(-c3ccc(F)cc3O)o2)S1 [AS252424] (first compound 0.01 µM, partner dose 1 µM), the cell count was found to be 90.7%.

As for `CN(NC(=O)CC(=O)NN(C)C(=S)c1ccccc1)C(=S)c1ccccc1` + O=C(Nc1ccccc1)c1cc([N+](=O)[O-])ccc1Cl [GW9662] (first compound 0.006 µM, partner dose 2 µM), the cell count worked out at 88.3%.

In turn, `COc1cc2c(Oc3ccc4[nH]c(C)cc4c3F)ncnc2cc1OCCCN1CCCC1` [cediranib] + O=C(O)C(=O)Nc1sc2c(c1C(=O)O)CCNC2 [TCS401] (first compound 0.4 µM, partner dose 1.66667 µM) gave a cell count of 84.8%.

Compound `CC(C)(C)c1cnc(CSc2cnc(NC(=O)C3CCNCC3)s2)o1` + O=c1cc(-c2cccc3c2Sc2ccccc2S3)oc(N2CCOCC2)c1 [KU55933] (first compound 0.01 µM, partner dose 1 µM) had a cell count of 75.7%.

On to `COc1cc2c(Oc3ccc4[nH]c(C)cc4c3F)ncnc2cc1OCCCN1CCCC1` [cediranib] + CCc1ccc(CCOc2ccc(CC3SC(=O)NC3=O)cc2)nc1 [pioglitazone] (first compound 0.4 µM, partner dose 2 µM), for which the cell count was 84%.

Compound `CN(NC(=O)CC(=O)NN(C)C(=S)c1ccccc1)C(=S)c1ccccc1` + O=C(O)C(=O)Nc1sc2c(c1C(=O)O)CCNC2 [TCS401] (first compound 0.006 µM, partner dose 1.66667 µM) yielded a cell count of 87.5%.

As to `CN(NC(=O)CC(=O)NN(C)C(=S)c1ccccc1)C(=S)c1ccccc1` + Cn1cc(/C=C2\C(=O)Nc3cccnc32)c2ccccc21 [GW441756] (first compound 0.006 µM, partner dose 0.4 µM), the cell count amounted to 89.5%.

`Cc1ccc(NC(=O)c2cccc(N(C)C)c2)cc1NC(=O)c1ccc(O)cc1` + CCc1ccc(CCOc2ccc(CC3SC(=O)NC3=O)cc2)nc1 [pioglitazone] (first compound 2 µM, partner dose 2 µM) registered a cell count of 80.5%.

`COc1cc2c(Oc3ccc4[nH]c(C)cc4c3F)ncnc2cc1OCCCN1CCCC1` [cediranib] + N#Cc1c(O)c2c(-c3ccc(-c4ccccc4O)cc3)csc2[nH]c1=O [A769662] (first compound 0.4 µM, partner dose 2 µM) came in with a cell count of 90.7%.

Consider `CCc1ccc(CCOc2ccc(CC3SC(=O)NC3=O)cc2)nc1` (stereo not given) [pioglitazone] + Cc1cc([N+](=O)[O-])ccc1NS(=O)(=O)c1cc(Cl)ccc1Cl [FH535] (first compound 2 µM, partner dose 1 µM), for which the cell count was 101%.

On to `CCc1ccc(CCOc2ccc(CC3SC(=O)NC3=O)cc2)nc1` (stereo not given) [pioglitazone] + COC(=O)c1sccc1S(=O)(=O)Nc1ccc(Nc2ccccc2)cc1OC [GSK0660] (first compound 2 µM, partner dose 1 µM), for which the cell count is 92%.

`COc1cc2c(Oc3ccc4[nH]c(C)cc4c3F)ncnc2cc1OCCCN1CCCC1` [cediranib] + COc1ccc(COc2ccc(Cc3cnc(N)nc3N)cc2OC)cc1 [GW2580] (first compound 0.4 µM, partner dose 1 µM) had a cell count of 86.8%.

As to `Cc1ccc(NC(=O)c2cccc(N(C)C)c2)cc1NC(=O)c1ccc(O)cc1` + COc1ccc2c(c1)CCC1C2CCC2(C)C(NCCCCCCN3C(=O)C=CC3=O)CCC12 [U73122] (first compound 2 µM, partner dose 0.4 µM), the cell count stood at 87.6%.

`CN(NC(=O)CC(=O)NN(C)C(=S)c1ccccc1)C(=S)c1ccccc1` + CCc1ccc(CCOc2ccc(CC3SC(=O)NC3=O)cc2)nc1 [pioglitazone] (first compound 0.006 µM, partner dose 2 µM) yielded a cell count of 85.4%.

Consider `CN(NC(=O)CC(=O)NN(C)C(=S)c1ccccc1)C(=S)c1ccccc1` + Oc1nc(-c2ccc(C(F)(F)F)cc2)nc2c1CSCC2 [XAV939] (first compound 0.006 µM, partner dose 2 µM), for which the cell count was determined as 85.6%.

The compound `CCc1ccc(CCOc2ccc(CC3SC(=O)NC3=O)cc2)nc1` (stereo not given) [pioglitazone] + CCN(CC)CCCCNc1ncc2cc(-c3cc(OC)cc(OC)c3)c(NC(=O)NC(C)(C)C)nc2n1 [PD173074] (first compound 2 µM, partner dose 0.1 µM) yielded a cell count of 97.7%.

Turning to `CN(NC(=O)CC(=O)NN(C)C(=S)c1ccccc1)C(=S)c1ccccc1` + Cc1cc([N+](=O)[O-])ccc1NS(=O)(=O)c1cc(Cl)ccc1Cl [FH535] (first compound 0.006 µM, partner dose 1 µM), the cell count was 77.5%.

Regarding `CC(C)(C)c1cnc(CSc2cnc(NC(=O)C3CCNCC3)s2)o1` + CCCCCCCCCCCC1=C(O)C(=O)C=C(O)C1=O [Embelin] (first compound 0.01 µM, partner dose 1.2 µM), the cell count turned out to be 107%.

`Cc1ccc(NC(=O)c2cccc(N(C)C)c2)cc1NC(=O)c1ccc(O)cc1` + O=C1NC(=O)/C(=C/c2ccc(-c3ccc(F)cc3O)o2)S1 [AS252424] (first compound 2 µM, partner dose 1 µM) yielded a cell count of 91.6%.

Take `CC(C)(C)c1cnc(CSc2cnc(NC(=O)C3CCNCC3)s2)o1` + CCN(CC)CCCCNc1ncc2cc(-c3cc(OC)cc(OC)c3)c(NC(=O)NC(C)(C)C)nc2n1 [PD173074] (first compound 0.01 µM, partner dose 0.1 µM): the cell count came out at 88.1%.

`Cc1ccc(NC(=O)c2cccc(N(C)C)c2)cc1NC(=O)c1ccc(O)cc1` + COc1ccc(-c2ccc3c(N4CCOCC4)nc(N4C[C@@H](C)O[C@@H](C)C4)nc3n2)cc1CO [KU0063794] (first compound 2 µM, partner dose 0.02 µM): the cell count is 73.1%.

Consider `Cc1ccc(NC(=O)c2cccc(N(C)C)c2)cc1NC(=O)c1ccc(O)cc1` + O=C(Nc1ccccc1)c1cc([N+](=O)[O-])ccc1Cl [GW9662] (first compound 2 µM, partner dose 2 µM), for which the cell count amounted to 82.5%.

As to `CCc1ccc(CCOc2ccc(CC3SC(=O)NC3=O)cc2)nc1` (stereo not given) [pioglitazone] + COc1ccc(-c2ccc3c(N4CCOCC4)nc(N4C[C@@H](C)O[C@@H](C)C4)nc3n2)cc1CO [KU0063794] (first compound 2 µM, partner dose 0.02 µM), the cell count was 99.6%.

Compound `COc1cc2c(Oc3ccc4[nH]c(C)cc4c3F)ncnc2cc1OCCCN1CCCC1` [cediranib] + COC(=O)c1sccc1S(=O)(=O)Nc1ccc(Nc2ccccc2)cc1OC [GSK0660] (first compound 0.4 µM, partner dose 1 µM) returned a cell count of 102%.
